# Measurements as given in the supplement of paper PMC8728848.
# The other results are listed elsewhere or left out.
# B1: Ficolin B (Rattus norvegicus), P57756 (protein)
# chain: MVLGSAALFVLSLCVTELTLHAADTCPEVKVLDLEGSNKLTILQGCPGLPGALGPKGEAGAKGDRGESGLPGHPGKAGPTGPKGDRGEKGVRGEKGDTGPSQSCATGPRTCKELLTRGYFLTGWYTIYLPDCRPLTVLCDMDTDGGGWTVFQRRIDGTVDFFRDWTSYKQGFGSQLGEFWLGNDNIHALTTQGTNELRVDLADFDGNHDFAKYSSFQIQGEAEKYKLILGNFLGGGAGDSLTSQNNMLFSTKDQDNDQGSSNCAVRYHGAWWYSDCHTSNLNGLYLRGLHKSYANGVNWKSWKGYNYSYKVSEMKVRLI
# Tests used:
# Assay in all cases: glycan array binding signal (z-score within array); higher = stronger binding
# Conditions in all cases: glycan notation: IUPAC condensed, linker removed
# [1] = target: Neu5Ac(a2-6)Gal(b1-4)GlcNAc(b1-2)Man(a1-3)[Man(a1-6)]Man(b1-4)GlcNAc(b1-4)GlcNAc
# How it was run: (§1)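 The binding signal is a Z-score computed within each array. Data were drawn from 3228 arrays in the Consortium for Functional Glycomics database, restricted to those with a known protein sequence. Scores were averaged over arrays of the same protein sequence at different concentrations or buffers, and over linkers, and negative values can be taken as non-binding.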
# [2] = target: Neu5Ac(a2-6)Gal(b1-4)GlcNAc(b1-2)Man(a1-3)[Neu5Ac(a2-6)Gal(b1-4)GlcNAc(b1-2)Man(a1-6)]Man(b1-4)GlcNAc(b1-4)GlcNAc
# How it was run: as §1
# [3] = target: Neu5Ac(a2-6)Gal(b1-4)GlcNAc(b1-2)Man(a1-6)Man(b1-4)GlcNAc(b1-4)GlcNAc
# How it was run: as §1
# [4] = target: Neu5Ac(a2-6)Gal(b1-4)GlcNAc(b1-2)Man(a1-6)[Gal(b1-4)GlcNAc(b1-2)Man(a1-3)]Man(b1-4)GlcNAc(b1-4)GlcNAc
# How it was run: as §1
# [5] = target: Neu5Ac(a2-6)Gal(b1-4)GlcNAc(b1-2)Man(a1-6)[GlcNAc(b1-2)Man(a1-3)]Man(b1-4)GlcNAc(b1-4)GlcNAc
# How it was run: as §1
# [6] = target: Neu5Ac(a2-6)Gal(b1-4)GlcNAc(b1-2)Man(a1-6)[Man(a1-3)]Man(b1-4)GlcNAc(b1-4)GlcNAc
# How it was run: as §1
# [7] = target: Neu5Ac(a2-6)Gal(b1-4)GlcNAc(b1-3)Gal(b1-3)GlcNAc
# How it was run: as §1
# [8] = target: Neu5Ac(a2-6)Gal(b1-4)GlcNAc(b1-3)Gal(b1-4)GlcNAc
# How it was run: as §1
# [9] = target: Neu5Ac(a2-6)Gal(b1-4)GlcNAc(b1-3)Gal(b1-4)GlcNAc(b1-3)Gal(b1-4)GlcNAc
# How it was run: as §1
# [10] = target: Neu5Ac(a2-6)Gal(b1-4)GlcNAc(b1-3)Gal(b1-4)[Fuc(a1-3)]GlcNAc(b1-3)Gal(b1-4)[Fuc(a1-3)]GlcNAc
# How it was run: as §1
# [11] = target: Neu5Ac(a2-6)Gal(b1-4)GlcNAc(b1-3)GalNAc
# How it was run: as §1
# [12] = target: Neu5Ac(a2-6)Gal(b1-4)GlcNAc6S
# How it was run: as §1
# Neu5Ac(a2-6)GalNAc = target: Neu5Ac(a2-6)GalNAc
# How it was run: as §1
# [13] = target: Neu5Ac(a2-6)GalNAc(b1-4)GlcNAc
# How it was run: as §1
# [14] = target: Neu5Ac(a2-6)GlcNAc(b1-4)GlcNAc
# How it was run: as §1
# [15] = target: Neu5Ac(a2-6)GlcNAc(b1-4)GlcNAc(b1-4)GlcNAc
# How it was run: as §1
# Neu5Ac(a2-8)Neu5Ac = target: Neu5Ac(a2-8)Neu5Ac
# How it was run: as §1
# [16] = target: Neu5Ac(a2-8)Neu5Ac(a2-3)Gal(b1-4)Glc
# How it was run: as §1
# [17] = target: Neu5Ac(a2-8)Neu5Ac(a2-3)[GalNAc(b1-4)]Gal(b1-4)Glc
# How it was run: as §1
# [18] = target: Neu5Ac(a2-8)Neu5Ac(a2-8)Neu5Ac
# How it was run: as §1
# [19] = target: Neu5Ac(a2-8)Neu5Ac(a2-8)Neu5Ac(a2-3)Gal(b1-4)Glc
# How it was run: as §1
# [20] = target: Neu5Ac(a2-8)Neu5Ac(a2-8)Neu5Ac(a2-3)[GalNAc(b1-4)]Gal(b1-4)Glc
# How it was run: as §1
# [21] = target: Neu5Ac(a2-8)Neu5Ac(a2-8)Neu5Ac(a2-8)Neu5Ac(a2-3)[GalNAc(b1-4)]Gal(b1-4)Glc
# How it was run: as §1
# [22] = target: Neu5Ac(b2-6)Gal(b1-4)GlcNAc
# How it was run: as §1
# Neu5Ac(b2-6)GalNAc = target: Neu5Ac(b2-6)GalNAc
# How it was run: as §1
# [23] = target: Neu5Ac9Ac(a2-3)Gal(b1-3)GlcNAc
# How it was run: as §1
# [24] = target: Neu5Ac9Ac(a2-3)Gal(b1-4)GlcNAc
# How it was run: as §1
# [25] = target: Neu5Ac9Ac(a2-6)Gal(b1-4)GlcNAc
# How it was run: as §1
# [26] = target: Neu5Gc(a2-3)Gal(b1-3)GlcNAc
# How it was run: as §1
# [27] = target: Neu5Gc(a2-3)Gal(b1-3)[Fuc(a1-4)]GlcNAc
# How it was run: as §1
# Neu5Gc(a2-3)Gal(b1-4)Glc = target: Neu5Gc(a2-3)Gal(b1-4)Glc
# How it was run: as §1
# [28] = target: Neu5Gc(a2-3)Gal(b1-4)GlcNAc
# How it was run: as §1
# [29] = target: Neu5Gc(a2-3)Gal(b1-4)[Fuc(a1-3)]GlcNAc
# How it was run: as §1
# [30] = target: Neu5Gc(a2-6)Gal(b1-4)GlcNAc
# How it was run: as §1
# Neu5Gc(a2-6)GalNAc = target: Neu5Gc(a2-6)GalNAc
# How it was run: as §1
# [31] = target: Neu5Gc(b2-6)Gal(b1-4)GlcNAc
# How it was run: as §1
binder,measurement,setting,value
B1,glycan array binding signal (z-score),[1],-0.201
same,glycan array binding signal (z-score),[2],-0.163
same,glycan array binding signal (z-score),[3],-0.222
same,glycan array binding signal (z-score),[4],-0.166
same,glycan array binding signal (z-score),[5],-0.092
same,glycan array binding signal (z-score),[6],-0.174
same,glycan array binding signal (z-score),[7],0.054
same,glycan array binding signal (z-score),[8],-0.146
same,glycan array binding signal (z-score),[9],-0.141
same,glycan array binding signal (z-score),[10],-0.204
same,glycan array binding signal (z-score),[11],-0.14
same,glycan array binding signal (z-score),[12],-0.137
same,glycan array binding signal (z-score),Neu5Ac(a2-6)GalNAc,0.091
same,glycan array binding signal (z-score),[13],-0.229
same,glycan array binding signal (z-score),[14],-0.141
same,glycan array binding signal (z-score),[15],-0.238
same,glycan array binding signal (z-score),Neu5Ac(a2-8)Neu5Ac,3.73
same,glycan array binding signal (z-score),[16],-0.232
same,glycan array binding signal (z-score),[17],-0.219
same,glycan array binding signal (z-score),[18],2.69
same,glycan array binding signal (z-score),[19],-0.141
same,glycan array binding signal (z-score),[20],-0.215
same,glycan array binding signal (z-score),[21],-0.154
same,glycan array binding signal (z-score),[22],8.52
same,glycan array binding signal (z-score),Neu5Ac(b2-6)GalNAc,0.975
same,glycan array binding signal (z-score),[23],0.314
same,glycan array binding signal (z-score),[24],-0.197
same,glycan array binding signal (z-score),[25],0.747
same,glycan array binding signal (z-score),[26],0.079
same,glycan array binding signal (z-score),[27],-0.23
same,glycan array binding signal (z-score),Neu5Gc(a2-3)Gal(b1-4)Glc,-0.207
same,glycan array binding signal (z-score),[28],-0.069
same,glycan array binding signal (z-score),[29],-0.221
same,glycan array binding signal (z-score),[30],-0.222
same,glycan array binding signal (z-score),Neu5Gc(a2-6)GalNAc,-0.157
same,glycan array binding signal (z-score),[31],-0.106
